# From PubChem BioAssay (Tox21)
# “And” between values parts separate entries of the source, which are not always exact repeats. Equal entries are not always repeated. The shares of active, inactive and inconclusive entries below differ from those in the screen. Where the call is inconclusive, the potency comes from a doubtful curve fit. Where a structure was tested more than once in an assay, its records may differ in their call. The source made the active and inactive calls. Unless noted, calls come from the whole dose curve; as a rule, active = well fitted cell-killing curve with a large enough effect in the repeat runs; inconclusive = weak or mixed curves, or effect the other way; inactive = no such curve, though single readings can be large or run the other way.
# Legend:
# [1] = qHTS assay to identify small molecule agonists of the farnesoid-X-receptor (FXR) signaling pathway - cell viability counter screen (AID 743218); settings: FXR-bla HEK293T viability, CellTiter-Glo luminescence, 16 h; viability change, negative = cytotoxic: at 62.6 µM (top of the series) unless noted; note: nearly all actives have a fitted effect of over 45% in size; for viability change, negative = cytotoxic: % is set by controls: 0 for no effect and ±100 for the full control effect
# Procedure, shortened: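 Cytotoxicity counter-screen run in parallel, same wells: FXR-UAS-bla HEK 293T cells dosed 16 h at 37 C, viability read by CellTiter-Glo luminescence after 30 min at room temperature.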
# [2] = target: Vitamin D3 receptor (Homo sapiens) (UniProt P11473); assay: qHTS assay to identify small molecule agonists of the vitamin D receptor (VDR) signaling pathway (AID 743222; calls by dose curve; for activation: % is set by controls: 0 for no effect and ±100 for the full control effect); settings: HEK293T VDR-UAS-bla, beta-lactamase FRET ratio, 16 h; activation: at 63.5 µM (top of the series) unless noted
# Chain of UniProt P11473 (P11473 whole entry, looked up): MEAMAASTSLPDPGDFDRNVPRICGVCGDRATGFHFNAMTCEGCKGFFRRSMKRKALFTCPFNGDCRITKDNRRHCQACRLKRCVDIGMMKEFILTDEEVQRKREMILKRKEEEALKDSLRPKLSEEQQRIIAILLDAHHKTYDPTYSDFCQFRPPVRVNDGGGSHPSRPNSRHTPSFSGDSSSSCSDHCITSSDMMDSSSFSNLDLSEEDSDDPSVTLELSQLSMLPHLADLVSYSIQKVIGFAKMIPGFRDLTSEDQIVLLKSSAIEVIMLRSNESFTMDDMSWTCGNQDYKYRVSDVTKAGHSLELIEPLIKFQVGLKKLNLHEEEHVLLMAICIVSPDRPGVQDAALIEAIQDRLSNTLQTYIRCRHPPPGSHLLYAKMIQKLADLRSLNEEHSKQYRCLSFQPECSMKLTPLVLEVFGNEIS
# Procedure, shortened: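 Quantitative HTS agonist-mode screen: compounds in DMSO were pin-transferred onto VDR-bla cells and incubated 16 h at 37C, 5% CO2. Reporter activity was detected with LiveBLAzer B/G FRET substrate after 2 h at room temperature.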
# [3] = qHTS assay to identify small molecule agonists of the NFkB signaling pathway (AID 1159509; active = well fitted curve in the direction sought with a large enough effect in the signal ratio in the repeat runs, not every such curve was filed as active; inconclusive = weak or mixed curves, or a change in a side signal; inactive = no such curve, though single readings can be large or run the other way; the % refers to the signal ratio); settings: NFkB-bla ME-180 cells, beta-lactamase FRET ratio, 5 h; activation: at 61 µM (top of the series) unless noted
# Procedure, shortened: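 NFkB-bla ME-180 cells carry a beta-lactamase reporter under an NF-kB response element. They were plated overnight, then exposed to compounds for 5 h at 37 C. Read-out is LiveBLAzer FRET after 1.5 hr at room temperature (405 nm excitation; 460/530 nm emission).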
# [4] = qHTS assay to identify small molecule agonists of the endoplasmic reticulum stress response signaling pathway (AID 1159516; active = well fitted activation curve with a large enough effect in the signal ratio in the repeat runs, not every such curve was filed as active; inconclusive = weak or mixed curves, or effect the other way; the % refers to the signal ratio; for activation: % is set by controls: 0 for no effect and ±100 for the full control effect); settings: ESRE-bla HeLa, ER stress beta-lactamase reporter, 5 h; activation: at 61 µM (top of the series) unless noted
# Procedure, shortened: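 Tox21 10K library screened in quantitative HTS format on ESRE-bla HeLa cells, a beta-lactamase reporter under ER stress response element control; 5 hr treatment, FRET read.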
# [5] = target: Vitamin D3 receptor (Homo sapiens) (UniProt P11473); assay: qHTS assay to identify small molecule antagonists of the vitamin D receptor (VDR) signaling pathway (AID 743223; active = well fitted inhibition curve with a large enough effect in the signal ratio in the repeat runs, not every such curve was filed as active; inconclusive = weak or mixed curves, or effect the other way; inactive = no such curve, though single readings can be large or run the other way; the % refers to the signal ratio); settings: VDR-UAS-bla HEK293T, beta-lactamase FRET ratio, 16 h
# Procedure, shortened: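 VDR-bla cells were plated, incubated 4 h at 37C, then given compound and 1alpha,25-dihydroxyvitamin D3 (3 nM final). After 16 h at 37C, LiveBLAzer B/G FRET substrate was added for 2 h at room temperature and fluorescence read.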
# [6] = qHTS assay to identify small molecule agonists of the vitamin D receptor (VDR) signaling pathway - cell viability counter screen (AID 743224); note: nearly all actives have a fitted effect of over 50% in size; for activity change, negative = cytotoxicity: % is set by controls: 0 for no effect and ±100 for the full control effect
# Procedure, shortened: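 Viability is measured in the same wells as the VDR-bla reporter assay: after 16 h compound treatment and 2 h substrate loading, CellTiter-Glo is added and luminescence read 30 min later.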
# [7] = qHTS assay to identify small molecule antagonists of the farnesoid-X-receptor (FXR) signaling pathway - cell viability counter screen (AID 743221; active = well fitted cell-killing curve with a large enough effect in the repeat runs, not every such curve was filed as active; inconclusive = weak or mixed curves, or effect the other way; inactive = no such curve, though single readings can be large or run the other way; note: nearly all actives have a fitted effect of over 50% in size); settings: FXR-bla HEK293T viability, CellTiter-Glo luminescence, 16 h; activity change, negative = cytotoxicity: at 62.6 µM (top of the series) unless noted
# Procedure, shortened: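 FXR-UAS-bla HEK 293T cells were treated with test compounds plus chenodeoxycholic acid (50 uM final) for 16 h at 37 C. Cell viability in the same wells was then read as CellTiter-Glo luminescence after 30 min at room temperature.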
# [8] = qHTS assay to identify small molecule antagonists of the vitamin D receptor (VDR) signaling pathway - cell viability counter screen (AID 743225); settings: VDR-bla HEK293T viability, CellTiter-Glo luminescence, 16 h; viability change, negative = cytotoxic: at 61 µM (top of the series); note: nearly all actives have a fitted effect of over 50% in size
# Procedure, shortened: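 VDR-bla HEK 293T cells, 4 h pre-incubation at 37C, then compound plus 1-alpha,25-dihydroxyvitamin D3 (3 nM final) for 16 h. After the beta-lactamase FRET read, CellTiter-Glo was added to the same wells; luminescence after 30 min at room temperature.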
# [9] = qHTS assay to identify small molecule agonists of the NFkB signaling pathway - cell viability counter screen (AID 1159515; calls by dose curve; note: nearly all actives have a fitted effect of over 55% in size)
# Procedure, shortened: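 Multiplexed viability readout: after the 5 hr compound exposure and 1.5 hr FRET substrate step, CellTiter-Glo reagent went into the same NFkB-bla ME-180 wells; ATP luminescence was measured after 30 min at room temperature.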
# [10] = target: Bile acid receptor (Homo sapiens) (UniProt Q96RI1); assay: qHTS assay to identify small molecule agonists of the farnesoid-X-receptor (FXR) signaling pathway (AID 743220; active = well fitted activation curve with a large enough effect in the signal ratio in the repeat runs, not every such curve was filed as active; inconclusive = weak or mixed curves, or effect the other way; the % refers to the signal ratio); settings: HEK293T FXR-UAS-bla, beta-lactamase FRET ratio, 16 h; activation: at 62.6 µM (top of the series) unless noted
# Chain of UniProt Q96RI1 (Q96RI1 whole entry, looked up): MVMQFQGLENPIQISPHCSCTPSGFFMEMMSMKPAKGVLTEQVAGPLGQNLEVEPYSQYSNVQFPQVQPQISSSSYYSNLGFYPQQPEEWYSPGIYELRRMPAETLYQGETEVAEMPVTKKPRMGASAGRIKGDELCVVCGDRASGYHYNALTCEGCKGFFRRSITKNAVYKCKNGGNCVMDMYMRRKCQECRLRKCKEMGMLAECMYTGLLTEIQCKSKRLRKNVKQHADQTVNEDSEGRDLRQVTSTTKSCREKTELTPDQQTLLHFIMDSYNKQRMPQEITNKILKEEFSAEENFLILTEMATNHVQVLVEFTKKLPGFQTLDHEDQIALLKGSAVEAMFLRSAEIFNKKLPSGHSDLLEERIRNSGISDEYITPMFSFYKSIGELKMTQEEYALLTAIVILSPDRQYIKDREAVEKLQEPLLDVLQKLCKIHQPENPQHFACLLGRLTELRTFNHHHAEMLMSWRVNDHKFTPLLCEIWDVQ
# Procedure, shortened: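 Beta-lactamase reporter under UAS control in GeneBLAzer FXR HEK 293T cells (5000/well) measured with LiveBLAzer FRET substrate after 2 h at room temperature. Compound exposure lasted 16 h at 37C.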
# [11] = activity change, negative = inhibition: at 61 µM (top of the series) unless noted
# Potency is the fitted concentration of half-maximal effect; tags give direction and shape of the fitted curve or compound fluorescence and quenching.
structure (smiles),measurement,setting,value
Cc1ccc(OP(=O)(Oc2ccccc2)Oc2ccccc2)cc1,Potency,[1],inactive
same,Potency,[2],inactive
same,Potency,[3],"inconclusive: 17.6 µM [falling, partial curve, poor fit]"
same,Potency,[4],"inconclusive: 0.0443 µM [rising, full curve, poor fit]"
[CH3][Sn]([CH3])([Cl])[Cl],Potency,[1],active: 55.9 µM
same,Potency,[5]; [11],"inconclusive: 61.6 µM [rising, single point]"
same,Potency,[6],inactive
same,Potency,[3],"inconclusive: 62.7 µM [falling, single point]"
same,activation,[4],inconclusive: -15.3% [at 78.8 µM]
CC(C)(c1ccc(OCC2CO2)cc1)c1ccc(OCC2CO2)cc1 (stereo not drawn),Potency,[1],"inconclusive: 62.5 µM [cytotoxic, single point]"
same,Potency,[7],"inconclusive: 55.7 µM [falling, single point]"
same,Potency,[2],inconclusive: 61.7 µM
same,activation,[2],inconclusive: -32.5% [at 81.1 µM]
same,Potency,[5]; [11],inconclusive: 55.7 µM and inconclusive: 61.7 µM [single point]
same,Potency,[6],"inconclusive: 55.7 µM [cytotoxic, single point]"
same,Potency,[8],"inconclusive: 62.5 µM [cytotoxic, single point]"
same,Potency,[3],"inconclusive: 62.5 µM [falling, single point] and inconclusive: 61.7 µM [falling, single point]"
same,Potency,[4],"inconclusive: 49.6 µM [rising, single point]"
CCc1cccc(CC)c1N(COC)C(=O)CCl,Potency,[3],"inconclusive: 61.6 µM [rising, partial curve, poor fit]"
same,activation,[4],inconclusive: -10.5% and inconclusive: -10.6%
C(=NC1CCCCC1)=NC1CCCCC1,"activity change, negative = inhibition",[5]; [11],inconclusive: 7.02% [at 78.8 µM]
same,"activity change, negative = inhibition",[5]; at 61 µM (top of the series),inactive: 3.91%
same,Potency,[6],active: 24.5 µM
same,Potency,[8],"inconclusive: 21.9 µM [cytotoxic, single point]"
same,Potency,[3],"inconclusive: 43.6 µM [falling, single point]"
same,Potency,[9],"inconclusive: 1.23 µM [rising, full curve]"
CCOC(=O)CC(=O)CCl,Potency,[3],"inconclusive: 43.6 µM [falling, partial curve]"
same,Potency,[4],"inconclusive: 49 µM [rising, partial curve, poor fit]"
BrCC(Br)(Br)Br,activation,[3],inconclusive: -1.42% [at 78.8 µM]
same,Potency,[4],inconclusive: 57 µM
N#Cc1c2ccccc2cc2ccccc12,Potency,[1],"inconclusive: 43.6 µM [cytotoxic, single point]"
same,Potency,[10],"inconclusive: 48.9 µM [fluorescent, partial curve]"
same,Potency,[2],"inconclusive: 24.5 µM [fluorescent, partial curve]"
same,Potency,[5]; [11],inconclusive: 7.75 µM [fluorescent]
same,Potency,[8],"inconclusive: 61.5 µM [cytotoxic, single point]"
same,Potency,[3],"inconclusive: 43.6 µM [fluorescent, partial curve]"
same,Potency,[4],"inconclusive: 38.8 µM [fluorescent, partial curve]"
C[C@]12Cc3nonc3C[C@@H]1CC[C@@H]1[C@@H]2CC[C@@]2(C)[C@H]1CC[C@]2(C)O,Potency,[8],inactive
same,Potency,[3],"inconclusive: 9.52 µM [rising, full curve, poor fit]"
same,Potency,[9],"inconclusive: 9.52 µM [cytotoxic, partial curve, poor fit]"
CC(C)(C)OO,"activity change, negative = inhibition",[5]; [11],inconclusive: 20.2%
same,Potency,[3],"inconclusive: 30.9 µM [rising, partial curve, poor fit]"
same,Potency,[9],"inconclusive: 43.6 µM [rising, partial curve, poor fit]"
C/C(=N\NC(=O)Nc1cc(F)cc(F)c1)c1ncccc1C(=O)O,Potency,[1],"inconclusive: 0.0012 µM [rising, full curve, poor fit]"
same,Potency,[3],inactive
same,Potency,[4],inactive
O=S1OC[C@@H]2[C@H](CO1)[C@]1(Cl)C(Cl)=C(Cl)[C@@]2(Cl)C1(Cl)Cl (stereo partly drawn),"viability change, negative = cytotoxic",[1],inconclusive: -53.8% [cytotoxic]
same,activation,[10],inconclusive: 10.4%
same,Potency,[5]; [11],"inconclusive: 61.6 µM [activator, single point]"
same,Potency,[3],inactive
same,Potency,[4],"inconclusive: 54.9 µM [cytotoxic, single point]"
CC(c1ccc(O)cc1)(c1ccc(O)cc1)c1ccc(O)cc1,Potency,[1],"inconclusive: 61.6 µM [cytotoxic, single point]"
same,Potency,[10],"inconclusive: 24.5 µM [activator, partial curve]"
same,Potency,[2],inactive
same,"activity change, negative = inhibition",[5]; [11],inconclusive: -40%
same,Potency,[6],"inconclusive: 54.9 µM [cytotoxic, partial curve, poor fit]"
same,Potency,[3],inactive
same,Potency,[4],inactive
